US9845340B2, “Peptides that specifically bind HGF receptor (cMet) and uses thereof” (Dyax Corp., priority 2003, dated 2017)
At least one compound was matched to its structure with a doubt left.

These compounds were tested against cMet-Fc fusion protein (Homo sapiens, UniProt P08581) (assay: Fluorescence anisotropy / polarization direct binding, human cMet). Details: fluorescein-labeled peptide 20 nM.
Chain of cMet-Fc fusion protein (P08581 25-307 limits assumed): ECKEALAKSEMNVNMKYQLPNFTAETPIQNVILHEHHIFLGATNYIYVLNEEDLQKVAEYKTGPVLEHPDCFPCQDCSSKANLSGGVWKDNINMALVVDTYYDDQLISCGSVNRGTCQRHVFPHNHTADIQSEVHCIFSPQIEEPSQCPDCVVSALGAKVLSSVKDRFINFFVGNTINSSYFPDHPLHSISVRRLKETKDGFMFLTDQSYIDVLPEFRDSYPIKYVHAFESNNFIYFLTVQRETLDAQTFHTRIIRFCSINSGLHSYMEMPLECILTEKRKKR
Chain of cMet-Fc fusion protein (P08581 with tags, fused parts or gaps limits assumed): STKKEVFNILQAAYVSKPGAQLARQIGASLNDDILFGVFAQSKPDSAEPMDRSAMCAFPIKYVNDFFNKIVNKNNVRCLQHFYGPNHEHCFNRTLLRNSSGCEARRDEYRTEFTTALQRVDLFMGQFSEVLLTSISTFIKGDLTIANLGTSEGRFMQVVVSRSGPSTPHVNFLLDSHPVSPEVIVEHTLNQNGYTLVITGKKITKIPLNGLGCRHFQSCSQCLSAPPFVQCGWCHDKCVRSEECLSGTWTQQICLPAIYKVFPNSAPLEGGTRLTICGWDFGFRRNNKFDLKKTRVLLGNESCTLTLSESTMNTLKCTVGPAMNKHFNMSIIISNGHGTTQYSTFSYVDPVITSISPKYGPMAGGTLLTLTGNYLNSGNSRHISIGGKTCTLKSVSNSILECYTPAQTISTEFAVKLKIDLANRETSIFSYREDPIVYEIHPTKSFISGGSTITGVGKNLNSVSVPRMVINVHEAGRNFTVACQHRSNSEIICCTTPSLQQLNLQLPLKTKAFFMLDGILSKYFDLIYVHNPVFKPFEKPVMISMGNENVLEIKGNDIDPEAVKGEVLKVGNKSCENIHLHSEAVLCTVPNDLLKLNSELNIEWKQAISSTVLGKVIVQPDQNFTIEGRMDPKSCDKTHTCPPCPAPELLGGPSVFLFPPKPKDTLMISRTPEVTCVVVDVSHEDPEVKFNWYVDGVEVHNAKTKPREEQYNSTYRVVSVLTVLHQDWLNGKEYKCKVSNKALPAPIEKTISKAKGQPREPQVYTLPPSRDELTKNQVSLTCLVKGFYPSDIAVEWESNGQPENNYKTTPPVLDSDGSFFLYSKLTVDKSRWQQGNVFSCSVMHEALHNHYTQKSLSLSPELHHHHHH

Row | Structure (SMILES) | Kd [nM]
1 | CC[C@H](C)[C@H](NC(=O)CNC(=O)[C@H](CCC(N)=O)NC(=O)[C@@H](NC(=O)[C@H](CCC(N)=O)NC(=O)[C@H](C)NC(C)=O)[C@@H](C)CC)C(=O)N[C@@H](CCC(N)=O)C(=O)N[C@@H](CCCCN)C(=O)N[C@H](C(=O)N[C@@H](CCC(=O)O)C(=O)N[C@@H](CCC(N)=O)C(=O)NCC(=O)N[C@@H](CCC(=O)O)C(=O)N[C@@H](Cc1ccccc1)C(=O)N[C@@H](Cc1ccc(O)cc1)C(=O)N[C@@H](Cc1c[nH]c2ccccc12)C(=O)N[C@@H](Cc1ccccc1)C(=O)N[C@@H](CC(N)=O)C(=O)N[C@@H](Cc1c[nH]c2ccccc12)C(=O)N[C@@H](Cc1ccccc1)C(=O)N1CCC[C@H]1C(=O)N[C@@H](C)C(=O)NCC(=O)NCC(=O)NCC(=O)N[C@@H](CCCCNC(=O)c1ccc2c(c1)C(=O)OC21c2ccc(O)cc2Oc2cc(O)ccc21)C(N)=O)[C@@H](C)O [SEQ ID NO: 450] | 2700
2 | CC[C@H](C)[C@H](NC(=O)[C@@H]1CCCN1C(=O)[C@H](Cc1ccc(O)cc1)NC(=O)[C@H](CO)NC(=O)[C@H](CCSC)NC(=O)[C@H](C)NC(=O)[C@H](CC(C)C)NC(=O)[C@H](CCCCN)NC(=O)[C@H](Cc1ccc(O)cc1)NC(=O)[C@H](Cc1c[nH]cn1)NC(=O)[C@H](C)NC(=O)[C@H](CCC(=O)O)NC(=O)[C@@H]1CCCN1C(=O)[C@H](CCCNC(=N)N)NC(=O)[C@H](CCC(N)=O)NC(=O)[C@H](C)NC(C)=O)C(=O)N[C@H](C(=O)N1CCC[C@H]1C(=O)N[C@@H](CCCNC(=N)N)C(=O)N[C@H](C(=O)N[C@@H](CCCCN)C(=O)N[C@H](C(=O)NCC(=O)NCC(=O)NCC(=O)N[C@@H](CCCCNC(=O)c1ccc2c(c1)C(=O)OC21c2ccc(O)cc2Oc2cc(O)ccc21)C(N)=O)[C@@H](C)O)[C@@H](C)O)[C@@H](C)CC [SEQ ID NO: 452] | > 2000
3 | CC(=O)N[C@@H](C)C(=O)NCC(=O)N[C@@H](Cc1ccc(O)cc1)C(=O)N[C@H](C(=O)N[C@@H](CO)C(=O)N[C@H]1CSSC[C@@H](C(=O)N[C@H](C(=O)N2CCC[C@H]2C(=O)N[C@@H](Cc2ccc(O)cc2)C(=O)NCC(=O)N[C@H](C(=O)NCC(=O)NCC(=O)NCC(=O)N[C@@H](CCCCNC(=O)c2ccc3c(c2)C(=O)OC32c3ccc(O)cc3Oc3cc(O)ccc32)C(N)=O)[C@@H](C)O)[C@@H](C)O)NC(=O)[C@H](CCC(=O)O)NC(=O)[C@H](Cc2ccccc2)NC(=O)[C@H](CO)NC(=O)[C@@H]2CCCN2C(=O)[C@@H]2CCCN2C(=O)CNC(=O)[C@H](C(C)C)NC1=O)[C@@H](C)O [SEQ ID NO: 059] | 4300
4 | CC[C@H](C)[C@H](NC(=O)[C@H](C)NC(=O)[C@@H](NC(=O)[C@H](Cc1ccccc1)NC(=O)[C@H](Cc1ccccc1)NC(=O)[C@H](CC(N)=O)NC(=O)[C@H](CCCNC(=N)N)NC(=O)[C@@H](NC(=O)[C@H](Cc1c[nH]cn1)NC(=O)[C@H](CC(=O)O)NC(=O)[C@@H](NC(=O)[C@H](Cc1c[nH]c2ccccc12)NC(=O)[C@H](CC(C)C)NC(=O)[C@H](CCC(=O)O)NC(=O)[C@H](Cc1ccccc1)NC(=O)CNC(=O)[C@H](CCC(N)=O)NC(=O)[C@H](C)NC(C)=O)C(C)C)[C@@H](C)O)[C@@H](C)CC)C(=O)N[C@@H](CO)C(=O)N1CCC[C@H]1C(=O)NCC(=O)NCC(=O)NCC(=O)N[C@@H](CCCCNC(=O)c1ccc2c(c1)C(=O)OC21c2ccc(O)cc2Oc2cc(O)ccc21)C(N)=O [SEQ ID NO: 469] | 2400
5 | CC[C@H](C)[C@H](NC(=O)[C@H](CC(C)C)NC(=O)[C@H](CCCCN)NC(=O)[C@H](CCC(=O)O)NC(=O)[C@@H](NC(=O)[C@@H](NC(=O)[C@@H](NC(=O)[C@H](C)NC(=O)[C@H](CO)NC(=O)[C@H](CC(C)C)NC(=O)[C@H](Cc1c[nH]c2ccccc12)NC(=O)[C@H](CC(=O)O)NC(=O)[C@@H]1CCCN1C(=O)[C@@H](NC(=O)[C@H](CCC(N)=O)NC(=O)[C@H](C)NC(C)=O)C(C)C)C(C)C)C(C)C)[C@@H](C)CC)C(=O)N[C@@H](CCC(=O)O)C(=O)N[C@@H](Cc1ccc(O)cc1)C(=O)NCC(=O)N[C@@H](CCSC)C(=O)N[C@@H](CCSC)C(=O)N[C@H](C(=O)NCC(=O)NCC(=O)NCC(=O)N[C@@H](CCCCNC(=O)c1ccc2c(c1)C(=O)OC21c2ccc(O)cc2Oc2cc(O)ccc21)C(N)=O)C(C)C [SEQ ID NO: 464] | > 2000
6 | CC[C@H](C)[C@H](NC(=O)[C@H](CCC(N)=O)NC(=O)[C@H](CCCNC(=N)N)NC(=O)CNC(=O)[C@H](CO)NC(=O)[C@H](CC(=O)O)NC(=O)[C@H](CC(=O)O)NC(=O)[C@@H](NC(=O)[C@@H]1CCCN1C(=O)[C@H](Cc1ccccc1)NC(=O)[C@@H](NC(=O)[C@H](Cc1ccc(O)cc1)NC(=O)[C@@H]1CCCN1C(=O)[C@H](CO)NC(=O)[C@H](CCC(N)=O)NC(=O)[C@H](C)NC(C)=O)[C@@H](C)CC)[C@@H](C)CC)C(=O)N[C@@H](Cc1ccccc1)C(=O)N[C@H](C(=O)N[C@H](C(=O)N[C@@H](CCC(N)=O)C(=O)N[C@@H](Cc1c[nH]c2ccccc12)C(=O)NCC(=O)NCC(=O)NCC(=O)NCC(=O)N[C@@H](CCCCNC(=O)c1ccc2c(c1)C(=O)OC21c2ccc(O)cc2Oc2cc(O)ccc21)C(N)=O)[C@@H](C)CC)C(C)C [SEQ ID NO: 463] | > 2000
7 | CC[C@H](C)[C@H](NC(=O)[C@@H](NC(=O)[C@H](CCC(=O)O)NC(=O)CNC(=O)[C@H](Cc1c[nH]c2ccccc12)NC(=O)[C@H](Cc1c[nH]cn1)NC(=O)[C@@H](NC(=O)[C@H](CC(C)C)NC(=O)CNC(=O)[C@H](CC(=O)O)NC(=O)[C@H](Cc1c[nH]cn1)NC(=O)[C@@H]1CCCN1C(=O)[C@H](Cc1c[nH]c2ccccc12)NC(=O)[C@H](CCC(N)=O)NC(=O)[C@H](C)NC(C)=O)C(C)C)C(C)C)C(=O)N[C@@H](CCSC)C(=O)N[C@@H](CC(C)C)C(=O)N[C@@H](CCCNC(=N)N)C(=O)N[C@@H](Cc1ccccc1)C(=O)NCC(=O)NCC(=O)NCC(=O)N[C@@H](CCCCNC(=O)c1ccc2c(c1)C(=O)OC21c2ccc(O)cc2Oc2cc(O)ccc21)C(N)=O [SEQ ID NO: 479] | 1700
8 | CC(=O)N[C@@H](C)C(=O)N[C@@H](CCC(N)=O)C(=O)N[C@@H](Cc1c[nH]cn1)C(=O)N[C@@H](Cc1c[nH]c2ccccc12)C(=O)N[C@@H](CC(=O)O)C(=O)N[C@@H](Cc1ccc(O)cc1)C(=O)N[C@@H](CC(=O)O)C(=O)N[C@@H](CO)C(=O)NCC(=O)N[C@@H](CO)C(=O)N[C@@H](CC(=O)O)C(=O)N[C@@H](Cc1ccccc1)C(=O)N[C@@H](Cc1c[nH]c2ccccc12)C(=O)N[C@@H](Cc1ccccc1)C(=O)N1CCC[C@H]1C(=O)N[C@H](C(=O)N[C@@H](Cc1ccccc1)C(=O)N[C@@H](Cc1ccccc1)C(=O)N[C@@H](CC(C)C)C(=O)N[C@@H](CCC(=O)O)C(=O)N[C@@H](Cc1c[nH]cn1)C(=O)N[C@@H](Cc1c[nH]cn1)C(=O)NCC(=O)NCC(=O)NCC(=O)N[C@@H](CCCCNC(=O)c1ccc2c(c1)C(=O)OC21c2ccc(O)cc2Oc2cc(O)ccc21)C(N)=O)C(C)C [SEQ ID NO: 475] | 1900
9 | CC(=O)N[C@@H](C)C(=O)NCC(=O)N[C@@H](CO)C(=O)N[C@@H](Cc1ccccc1)C(=O)N[C@@H](C)C(=O)N[C@H]1CSSC[C@@H](C(=O)N[C@H](C(=O)N[C@@H](CCC(=O)O)C(=O)N[C@@H](Cc2ccccc2)C(=O)NCC(=O)N[C@H](C(=O)NCC(=O)NCC(=O)NCC(=O)N[C@@H](CCCCNC(=O)c2ccc3c(c2)C(=O)OC32c3ccc(O)cc3Oc3cc(O)ccc32)C(N)=O)[C@@H](C)O)C(C)C)NC(=O)[C@H](C)NC(=O)[C@H](Cc2ccccc2)NC(=O)[C@H]([C@@H](C)O)NC(=O)[C@@H]2CCCN2C(=O)[C@@H]2CCCN2C(=O)CNC(=O)[C@H](CCCCN)NC1=O [SEQ ID NO: 053] | 2900
10 | CC[C@H](C)[C@@H]1NC(=O)[C@@H](NC(=O)[C@H](Cc2c[nH]cn2)NC(=O)[C@@H](NC(=O)[C@H](Cc2c[nH]c3ccccc23)NC(=O)CNC(=O)[C@H](C)NC(C)=O)[C@@H](C)O)CSSC[C@@H](C(=O)N[C@H](C(=O)N2CCC[C@H]2C(=O)N[C@@H](CCSC)C(=O)NCC(=O)N[C@H](C(=O)NCC(=O)NCC(=O)NCC(=O)N[C@@H](CCCCNC(=O)c2ccc3c(c2)C(=O)OC32c3ccc(O)cc3Oc3cc(O)ccc32)C(N)=O)[C@@H](C)O)[C@@H](C)CC)NC(=O)[C@H](CCC(=O)O)NC(=O)[C@H](Cc2ccccc2)NC(=O)[C@H]([C@@H](C)O)NC(=O)[C@@H]2CCCN2C(=O)[C@@H]2CCCN2C(=O)CNC1=O [SEQ ID NO: 052] | 2700
11 | CC[C@H](C)[C@@H]1NC(=O)[C@H](Cc2ccccc2)NC(=O)[C@H](CCC(=O)O)NC(=O)[C@@H](NC(=O)[C@H](Cc2c[nH]cn2)NC(=O)[C@H](Cc2ccccc2)NC(=O)[C@H](CC(=O)O)NC(=O)[C@H](CC(=O)O)NC(=O)CNC(C)=O)CSSC[C@@H](C(=O)N[C@@H](Cc2ccc(O)cc2)C(=O)N[C@@H](Cc2ccccc2)C(=O)N[C@@H](CC(N)=O)C(=O)N[C@@H](CC(=O)O)C(=O)N2CCC[C@H]2C(=O)NCC(=O)NCC(=O)NCC(=O)N[C@@H](CCCCNC(=O)c2ccc3c(c2)C(=O)OC32c3ccc(O)cc3Oc3cc(O)ccc32)C(N)=O)NC(=O)[C@H]([C@@H](C)CC)NC(=O)[C@H](CCC(=O)O)NC(=O)[C@H](CO)NC(=O)[C@H](CCC(N)=O)NC(=O)[C@H](Cc2ccc(O)cc2)NC(=O)[C@H](CC(=O)O)NC(=O)[C@H](CC(=O)O)NC1=O [SEQ ID NO: 391] | 1800
12 | CSCC[C@H](NC(=O)[C@H](Cc1ccccc1)NC(=O)[C@H](CCC(N)=O)NC(=O)[C@@H](NC(=O)[C@@H]1CCCN1C(=O)[C@H](CCSC)NC(=O)[C@H](Cc1c[nH]c2ccccc12)NC(=O)[C@@H](NC(=O)[C@H](CC(=O)O)NC(=O)[C@H](CCSC)NC(=O)[C@H](CCC(N)=O)NC(=O)[C@H](CCCNC(=N)N)NC(=O)[C@H](CCC(N)=O)NC(=O)[C@@H](NC(=O)[C@H](CO)NC(=O)[C@H](Cc1c[nH]cn1)NC(=O)[C@H](CCC(N)=O)NC(=O)[C@H](C)NC(C)=O)C(C)C)C(C)C)C(C)C)C(=O)N[C@@H](C)C(=O)NCC(=O)N[C@@H](Cc1ccccc1)C(=O)N[C@H](C(=O)NCC(=O)NCC(=O)NCC(=O)N[C@@H](CCCCNC(=O)c1ccc2c(c1)C(=O)OC21c2ccc(O)cc2Oc2cc(O)ccc21)C(N)=O)[C@@H](C)O [SEQ ID NO: 467] | > 2000
